In all, about 350,000 compounds went through this assay and about 31,000 (8.9%) were called active. Inconclusive means that the source gave no clear call. Such entries were picked first, then a sample of the others. The call rests on the fitted dose curve; in most records, active means well fitted inhibition curve with a large enough effect; inconclusive means small, poorly fitted or top-dose-only effect; inactive means no such curve, though single readings can be large or run the other way. Where the call is inconclusive, the potency comes from a doubtful curve fit.
Biological target: Histone-lysine N-methyltransferase EHMT2 (Homo sapiens) (UniProt Q96KQ7)
Chain of UniProt Q96KQ7 (Q96KQ7 whole entry, looked up): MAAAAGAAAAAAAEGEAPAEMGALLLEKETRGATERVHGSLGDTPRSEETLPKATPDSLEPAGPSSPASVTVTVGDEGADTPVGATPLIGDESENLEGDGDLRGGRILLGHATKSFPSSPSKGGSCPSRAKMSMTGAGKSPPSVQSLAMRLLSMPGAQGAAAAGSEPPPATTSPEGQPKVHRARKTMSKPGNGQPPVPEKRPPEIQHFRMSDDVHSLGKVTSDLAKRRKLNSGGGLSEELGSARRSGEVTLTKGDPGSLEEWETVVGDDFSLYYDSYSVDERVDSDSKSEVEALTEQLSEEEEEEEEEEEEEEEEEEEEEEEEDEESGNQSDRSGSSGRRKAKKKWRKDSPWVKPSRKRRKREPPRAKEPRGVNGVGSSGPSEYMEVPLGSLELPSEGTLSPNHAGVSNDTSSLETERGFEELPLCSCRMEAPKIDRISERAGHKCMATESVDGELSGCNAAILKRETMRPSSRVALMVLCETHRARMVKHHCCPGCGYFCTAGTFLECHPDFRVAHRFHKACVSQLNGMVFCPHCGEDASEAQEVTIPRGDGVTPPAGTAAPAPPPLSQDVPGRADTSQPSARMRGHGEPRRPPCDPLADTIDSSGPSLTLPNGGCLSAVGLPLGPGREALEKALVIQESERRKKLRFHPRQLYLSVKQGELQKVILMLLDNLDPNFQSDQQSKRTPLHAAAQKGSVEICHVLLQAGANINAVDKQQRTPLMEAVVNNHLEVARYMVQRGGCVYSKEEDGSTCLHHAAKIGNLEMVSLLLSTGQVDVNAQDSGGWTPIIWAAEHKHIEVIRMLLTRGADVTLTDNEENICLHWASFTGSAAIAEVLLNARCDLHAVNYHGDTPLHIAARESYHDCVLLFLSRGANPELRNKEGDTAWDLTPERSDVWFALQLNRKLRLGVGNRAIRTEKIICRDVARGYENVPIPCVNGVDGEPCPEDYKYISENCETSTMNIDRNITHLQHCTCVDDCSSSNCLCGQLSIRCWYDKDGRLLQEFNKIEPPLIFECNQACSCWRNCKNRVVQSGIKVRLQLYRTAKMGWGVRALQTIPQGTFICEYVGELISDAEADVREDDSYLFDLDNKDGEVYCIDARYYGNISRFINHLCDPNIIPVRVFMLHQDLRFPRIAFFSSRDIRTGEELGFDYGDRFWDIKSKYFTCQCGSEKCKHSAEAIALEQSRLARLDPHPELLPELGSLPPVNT
Experiment: qHTS Assay for Inhibitors of Histone Lysine Methyltransferase G9a; further: nearly all actives have a fitted effect of over 75% in size
Details: G9a H3K9 monomethylation, AlphaScreen, 2 h; activity, negative = inhibition: at 59 µM (top of the series) unless noted
Summary of the method: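 AlphaScreen read-out: biotin-H3K9 peptide (500 nM) methylation by 20 nM enzyme with 20 uM SAM, 2 h at room temperature after 15 min compound preincubation; anti-monomethyl H3K9 antibody plus donor/acceptor beads, 10 min dark.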
On the % scale 0 is the no-effect control and ±100 the full control effect; potency means the concentration at half of the fitted maximal effect; tags describe the fitted curve by direction and shape.

**Q.** For `Cc1cc(C)cc(N=c2c([N+](=O)[O-])nn(-c3ccc(Cl)cc3)n2O)c1`, which Potency is on record?
**A.** inconclusive: 5.01 µM [inhibitor, full curve, poor fit]

**Q.** With `Cc1cc(C)c(-c2csc(-c3cc4ccccc4oc3=O)n2)cc1C` as the compound, how does the “activity, negative = inhibition” value read?
**A.** inactive: 56.8%

**Q.** Which Potency does the source give for `CCCC[C@]12Cc3cc(OC)c(OC)cc3C(O1)C1=C(CC3(CCCCC3)OC1=O)O2` here?
**A.** inconclusive: 0.0355 µM [inhibitor, partial curve, poor fit]

**Q.** With `O=S(=O)(NCCc1csc2nc(-c3ccc(F)cc3)nn12)c1ccc2c(c1)OCCO2` as the compound, how does the Potency read?
**A.** inconclusive: 2.82 µM [inhibitor, full curve, poor fit]

**Q.** With `N#C/C(=C\c1ccc(OCc2ccc(C(=O)O)cc2)cc1)C(=O)NCc1ccccc1` as the compound, how does the Potency read?
**A.** inconclusive: 89.1 µM [inhibitor, single point]

**Q.** For `CCCCn1c(N)c(N(CCOC)C(=O)c2cccc(S(=O)(=O)N(CC)c3ccccc3)c2)c(=O)[nH]c1=O`, which Potency is on record?
**A.** inconclusive: 89.1 µM [inhibitor, partial curve, poor fit]

**Q.** For `COc1ccc(N2CCN(C(=O)C3CCC(Cn4c(=S)[nH]c5ccccc5c4=O)CC3)CC2)cc1` (stereo not drawn), which Potency is on record?
**A.** inconclusive: 31.6 µM [inhibitor, partial curve, poor fit]

**Q.** `CCCOc1ccc(C(=O)C(c2ccccc2)N2CCOCC2)cc1` (stereo not drawn) was tested. Which Potency did it give?
**A.** inconclusive: 1.58 µM [inhibitor, single point]

**Q.** `Cc1cc(C)nc(NC(=O)Cc2ccc([N+](=O)[O-])cc2)c1` was tested. Which “activity, negative = inhibition” value did it give?
**A.** inactive: -1.77%

**Q.** `Cc1cc(C)cc(-n2c(C)cc(/C=N/NC(=O)CN(c3c(C)cccc3C)S(C)(=O)=O)c2C)c1` was tested. Which “activity, negative = inhibition” value did it give?
**A.** inactive: 18.5%

**Q.** `CC(C)c1cc(C(=O)N/N=C/c2ccco2)n[nH]1` was tested. Which “activity, negative = inhibition” value did it give?
**A.** inactive: 14.2% [at 102 µM]

**Q.** For `Cc1ccc(N2CCN(CCCN3C(=O)C4CCCN4C3=O)CC2)cc1` (stereo not drawn), which Potency is on record?
**A.** active: 8.91 µM

**Q.** How did the “activity, negative = inhibition” value turn out when `CC(=O)c1cc(Cc2csc(C(C)=O)c2)cs1` was run?
**A.** inactive: -0.804%

**Q.** How did the Potency turn out when `Cc1csc(Nc2ccccc2)n1` was run?
**A.** inconclusive: 50.1 µM [inhibitor, partial curve, poor fit]

**Q.** `COc1ccc(-c2cc(C(=O)N3CC(C)CC(C)C3)c3ccccc3n2)cc1OC` (stereo not drawn) was tested. Which Potency did it give?
**A.** inconclusive: 89.1 µM [inhibitor, partial curve, poor fit]

**Q.** For `COC1=C(OC)C(=O)C(C/C=C(\C)CC/C=C(\C)CC/C=C(\C)CC/C=C(\C)CC/C=C(\C)CC/C=C(\C)CC/C=C(\C)CC/C=C(\C)CC/C=C(\C)CCC=C(C)C)=C(C)C1=O`, which “activity, negative = inhibition” value is on record?
**A.** inactive: 22.9%

**Q.** For `CC1(C2(O)CCCCC2)NCCc2ccccc21` (stereo not drawn), which Potency is on record?
**A.** active: 31.6 µM

**Q.** With `Cc1cc(C(=O)Nc2sc3c(c2C#N)CCCCC3)cs1` as the compound, how does the Potency read?
**A.** inconclusive: 3.16 µM [inhibitor, partial curve, poor fit]

**Q.** `Cc1ccc(NC(=O)N[C@H](C(=O)O)C(C)C)c(C)c1` was tested. Which “activity, negative = inhibition” value did it give?
**A.** inactive: -39.3% [at 102 µM]

**Q.** `CN(C)Cc1nc2ccccc2c(=O)n1Cc1nc(-c2cc3ccccc3o2)cs1` was tested. Which activity, negative = inhibition did it give?
**A.** inconclusive: -56.1% [inhibitor]

**Q.** `Cc1ccccc1Cn1c(=O)n(CCCCC(=O)NCc2ccc3c(c2)OCO3)c(=O)c2ccccc21` was tested. Which “activity, negative = inhibition” value did it give?
**A.** inactive: -2.23%

**Q.** Which Potency does the source give for `Cc1occc1C(=O)Nc1nn[nH]n1` here?
**A.** active: 44.7 µM

**Q.** Which Potency does the source give for `Cc1cc2c(n1-c1ccc(C(=O)NCc3cccc(Br)c3)cc1)CCC(C)C2` (stereo not drawn) here?
**A.** inconclusive: 39.8 µM [inhibitor, partial curve, poor fit]

**Q.** Which “activity, negative = inhibition” value does the source give for `Cc1nn(-c2ccccn2)c2c1C(c1ccccn1)C1=C(CCCC1=O)N2` (stereo not drawn) here?
**A.** inactive: -1.54%

**Q.** How did the Potency turn out when `CCCCn1c2nc3ccccc3nc2c2c(=N)oc(C)nc21` was run?
**A.** inconclusive: 89.1 µM [inhibitor, single point]

**Q.** For `CCc1cccc(Nc2c3c(nc4ncnn24)CCC3)c1`, which “activity, negative = inhibition” value is on record?
**A.** inactive: 17.3% [at 102 µM]

**Q.** `Cc1ccc(NC2CCCN(C(=O)CCN3CCCCO3)C2)cc1C` (stereo not drawn) was tested. Which Potency did it give?
**A.** active: 31.6 µM

**Q.** `C=CCOc1c(Cl)cc(CNn2cn[nH]c2=S)cc1OC` was tested. Which Potency did it give?
**A.** inconclusive: 3.55 µM [inhibitor, full curve, poor fit]

**Q.** Which Potency does the source give for `COC(=O)/C(=C/c1c[nH]c2ccccc12)[N+](=O)[O-]` here?
**A.** inconclusive: 39.8 µM [inhibitor, partial curve, poor fit]

**Q.** Which Potency does the source give for `O=C(N/N=C/c1ccc(N2CCCC2)c([N+](=O)[O-])c1)c1cccnc1` here?
**A.** inconclusive: 79.4 µM [inhibitor, partial curve, poor fit]

**Q.** With `CCC1=NN=C(c2ccc(F)cc2)C(c2c[nH]c3ccccc23)N1O` (stereo not drawn) as the compound, how does the Potency read?
**A.** inconclusive: 22.4 µM [inhibitor, single point]

**Q.** For `CCOc1ccccc1CNC(=O)C1=C(C)C(=O)OC12CCN(C(C)=O)CC2`, which “activity, negative = inhibition” value is on record?
**A.** inactive: 0.498%

**Q.** `CCOC(=O)N1CCN(C2=C(NS(=O)(=O)c3ccc(C)cc3)C(=O)c3ccccc3C2=O)CC1` was tested. Which Potency did it give?
**A.** active: 22.4 µM

**Q.** Which Potency does the source give for `Cc1ccc(C)n1-n1c(C)nc2scc(-c3ccccc3)c2c1=O` here?
**A.** inconclusive: 56.2 µM [inhibitor, partial curve, poor fit]

**Q.** With `CCCCC(O)(CCN1CCOCC1)c1ccc(Cl)cc1` (stereo not drawn) as the compound, how does the “activity, negative = inhibition” value read?
**A.** inactive: -35% [at 102 µM]

**Q.** `COC(=O)CCCC(=O)N1CCOCCN(C(=O)CCCC(=O)OC)CCOCC1` was tested. Which Potency did it give?
**A.** inconclusive: 1.26 µM [inhibitor, partial curve, poor fit]

**Q.** `O=C(c1ccc(Br)cc1)N1CCC(c2nc3ccccc3s2)CC1` was tested. Which “activity, negative = inhibition” value did it give?
**A.** inactive: 24.8%

**Q.** Which “activity, negative = inhibition” value does the source give for `C[C@@H](NC(=O)c1cc2c([nH]c3ccccc32)c(-c2ccccc2)n1)C(=O)O` here?
**A.** inactive: -18.7% [at 102 µM]

**Q.** How did the Potency turn out when `COc1ccc(NC(=O)CNc2ccccc2N2CCCC2=O)cc1S(=O)(=O)N1CCOCC1` was run?
**A.** inconclusive: 39.8 µM [inhibitor, single point]

**Q.** For `CCOC(=O)c1[nH]c(C)c(CCC(=O)Nc2ccc(C)cc2Cl)c1C`, which “activity, negative = inhibition” value is on record?
**A.** inactive: 1.01%

**Q.** Which activity, negative = inhibition does the source give for `Cc1ccc(NC(=O)CCCN2C(=O)NC(C)(C)C2=O)cc1` here?
**A.** inactive: -12.1% [at 12.7 µM]

**Q.** `S=c1[nH]nc(-c2ccc3ccccc3n2)n1-c1ccc(Cl)cc1` was tested. Which Potency did it give?
**A.** inconclusive: 2 µM [inhibitor, full curve, poor fit]

**Q.** With `CCn1c(SCc2ccc(C(=O)OC)o2)nc2sc3c(c2c1=O)CCCC3` as the compound, how does the activity, negative = inhibition read?
**A.** inactive: 12.1% [at 2.33 µM]

**Q.** How did the Potency turn out when `CC(C)Nc1cc(N2CCN(C3CCCCC3)CC2)c2noc3c2c1C(=O)c1ccccc1-3` was run?
**A.** inconclusive: 22.4 µM [inhibitor, partial curve, poor fit]

**Q.** Which Potency does the source give for `COc1ccc(N2CCN(C(=O)C(=O)c3cn(CC(=O)N4CCCCCC4)c4ccccc34)CC2)cc1` here?
**A.** active: 70.8 µM

**Q.** For `Cc1cs/c(=N\N=C\c2ccc(O)cc2)n1Cc1ccco1`, which Potency is on record?
**A.** inconclusive: 39.8 µM [inhibitor, single point]

**Q.** How did the Potency turn out when `Cc1ccc(S(=O)(=O)c2nnn3c2nc(N2CCCCC2)c2ccccc23)cc1` was run?
**A.** inconclusive: 20 µM [inhibitor, single point]

**Q.** Which activity, negative = inhibition does the source give for `Cc1cc(C)cc(-n2ncc3c2CCCC3NC(=O)CN2CCCC2=O)c1` (stereo not drawn) here?
**A.** inactive: 15.3% [at 0.501 µM]

**Q.** `Cc1ccc(-c2[nH]nc(N)c2N=Nc2cccc(Cl)c2C)cc1` was tested. Which Potency did it give?
**A.** inconclusive: 17.8 µM [inhibitor, partial curve, poor fit]

**Q.** How did the Potency turn out when `Cc1nnsc1C(=O)NC(C)c1ccccc1` (stereo not drawn) was run?
**A.** inconclusive: 89.1 µM [inhibitor, partial curve, poor fit]

**Q.** Which Potency does the source give for `CCCCCc1ccc(-c2ccc(C(=O)Oc3ccc(C(=O)OC)cc3)cc2)nc1` here?
**A.** inconclusive: 8.91 µM [inhibitor, partial curve, poor fit]

**Q.** How did the Potency turn out when `CC(C)(C)C1CCc2c(sc(NC(=O)CSc3ncn[nH]3)c2C#N)C1` (stereo not drawn) was run?
**A.** active: 25.1 µM

**Q.** How did the Potency turn out when `COc1ccc(CNc2oc(-c3cccc4ccccc34)nc2C#N)cc1` was run?
**A.** inconclusive: 35.5 µM [inhibitor, single point]

**Q.** Which Potency does the source give for `O=C(NC1CCCCC1)c1cccc(COCC(F)(F)F)c1` here?
**A.** inconclusive: 39.8 µM [inhibitor, partial curve, poor fit]

**Q.** Which Potency does the source give for `Cc1cc(C)c(S(=O)(=O)N2CCN(C(=O)c3ccc(-n4cncn4)c([N+](=O)[O-])c3)CC2)c(C)c1` here?
**A.** inconclusive: 89.1 µM [inhibitor, single point]

**Q.** With `Cc1nc2sccn2c1-c1csc(NCc2ccccc2)n1` as the compound, how does the Potency read?
**A.** inconclusive: 1 µM [inhibitor, partial curve, poor fit]

**Q.** With `O=C(O)C1CCC1C(=O)Nc1nc(-c2ccc(Cl)s2)cs1` (stereo not drawn) as the compound, how does the Potency read?
**A.** inconclusive: 50.1 µM [inhibitor, partial curve, poor fit]

**Q.** How did the Potency turn out when `COc1ccccc1CNC(=O)c1ccc(CSc2nc3ccncc3n2Cc2ccccc2C)cc1` was run?
**A.** inconclusive: 2.82 µM [inhibitor, partial curve, poor fit]

**Q.** How did the activity, negative = inhibition turn out when `Cc1ccc(O)c(-c2cc(-c3ccccc3C)[nH]n2)c1` was run?
**A.** inconclusive: -74.8% [inhibitor] [at 12.7 µM]

**Q.** How did the Potency turn out when `N=c1n(Cc2ccccc2)c2ccccc2n1CC(O)c1ccco1` (stereo not drawn) was run?
**A.** inconclusive: 7.94 µM [inhibitor, partial curve, poor fit]

**Q.** `CCCC(=O)N(CCN1CCOCC1)c1nc2c(F)cc(F)cc2s1` was tested. Which Potency did it give?
**A.** inconclusive: 89.1 µM [inhibitor, single point]

**Q.** With `CCNC(=O)COC(=O)/C=C/c1cccc(F)c1` as the compound, how does the “activity, negative = inhibition” value read?
**A.** inactive: 2.73% [at 102 µM]

**Q.** With `COCCn1c(-c2ccc(OC)cc2)cnc1SCC(=O)Nc1cc(C)on1` as the compound, how does the Potency read?
**A.** active: 79.4 µM

**Q.** With `CCOC(=O)c1ccc(NC(=S)N2CCSC2c2ccc(OC)cc2)cc1` (stereo not drawn) as the compound, how does the Potency read?
**A.** inconclusive: 20 µM [inhibitor, single point]

**Q.** With `CCc1ccc2[nH]c(=O)c(CN(Cc3ccc(F)cc3)C(c3nnnn3CCN3CCOCC3)C(C)C)cc2c1` (stereo not drawn) as the compound, how does the activity, negative = inhibition read?
**A.** inconclusive: -62.8% [inhibitor]

**Q.** `Cc1cccc(NC(=O)CSCC(=O)Nc2ccccc2N2CCCCC2)c1` was tested. Which “activity, negative = inhibition” value did it give?
**A.** inactive: -28.1%

**Q.** How did the activity, negative = inhibition turn out when `CCOc1ccc(N=C2NC(=O)S/C2=C\c2ccc(Cl)cc2)cc1` was run?
**A.** inactive: -11.2% [at 2.33 µM]

**Q.** For `CC(=O)c1c(C)[nH]c(C(=O)CSc2nnc(-c3cccs3)n2Cc2ccccc2)c1C`, which activity, negative = inhibition is on record?
**A.** inactive: -10.6% [at 12.7 µM]
